These results are taken from PubChem BioAssay AID1645887 (National Center for Advancing Translational Sciences (NCATS), 2021).

Each structure is given as a SMILES string. Where “and” joins values, the source holds several entries; their conditions need not be identical. Equal entries are not always repeated. Among all 16,000 compounds or so, about 40 (0.2%) were called active. Not shown: some 1% with an inconclusive outcome. The call rests on the fitted dose curve; in most records, active means well fitted activation curve with a large enough effect; inconclusive means small, poorly fitted or top-dose-only effect, or another doubt; inactive means no such curve, though single readings can be large or run the other way. The list shows a part of the results.
On the % scale 0 is the no-effect control and ±100 the full control effect.

Chain of UniProt Q8WZA2 (Q8WZA2 whole entry, looked up): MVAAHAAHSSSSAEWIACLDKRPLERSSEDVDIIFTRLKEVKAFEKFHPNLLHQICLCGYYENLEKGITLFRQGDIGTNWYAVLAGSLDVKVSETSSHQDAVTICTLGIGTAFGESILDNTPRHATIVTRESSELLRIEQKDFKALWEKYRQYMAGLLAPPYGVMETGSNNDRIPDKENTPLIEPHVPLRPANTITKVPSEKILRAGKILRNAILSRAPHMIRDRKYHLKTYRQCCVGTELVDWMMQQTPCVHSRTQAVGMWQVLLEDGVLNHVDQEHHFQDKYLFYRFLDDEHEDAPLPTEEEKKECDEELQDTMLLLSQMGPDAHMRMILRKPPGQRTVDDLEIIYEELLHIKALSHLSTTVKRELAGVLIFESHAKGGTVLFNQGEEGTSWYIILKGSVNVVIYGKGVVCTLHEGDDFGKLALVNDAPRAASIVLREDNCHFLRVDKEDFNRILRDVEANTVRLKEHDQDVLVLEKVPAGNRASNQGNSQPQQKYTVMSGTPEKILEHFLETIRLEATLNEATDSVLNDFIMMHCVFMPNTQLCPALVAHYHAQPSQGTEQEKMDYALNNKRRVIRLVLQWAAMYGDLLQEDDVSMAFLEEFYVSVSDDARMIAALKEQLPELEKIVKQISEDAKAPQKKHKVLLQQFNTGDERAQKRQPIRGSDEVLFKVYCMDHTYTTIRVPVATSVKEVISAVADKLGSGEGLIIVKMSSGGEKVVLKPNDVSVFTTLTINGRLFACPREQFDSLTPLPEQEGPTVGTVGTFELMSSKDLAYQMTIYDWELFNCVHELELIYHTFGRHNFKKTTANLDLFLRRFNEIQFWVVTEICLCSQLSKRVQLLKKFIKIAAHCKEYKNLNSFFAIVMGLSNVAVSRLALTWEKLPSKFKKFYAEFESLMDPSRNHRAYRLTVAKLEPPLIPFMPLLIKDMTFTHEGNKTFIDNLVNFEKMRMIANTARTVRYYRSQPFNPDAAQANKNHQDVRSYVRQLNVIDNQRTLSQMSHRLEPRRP

The test has as its target Rap guanine nucleotide exchange factor 4 (Homo sapiens) (UniProt Q8WZA2). Kind of test: Validation qHTS for agonist of cAMP-regulated guanine nucleotide exchange factor 4 (EPAC2).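 Further: exchange makes BODIPY-GDP fluorescence drop when released from Rap1B; series mostly up to about 150 µM.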 Conditions: EPAC2 Rap1B BODIPY-GDP exchange, fluorescence; activation: stronger effect = higher value. In short, it runs like this:
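Fluorescent exchange assay: 100 nM EPAC2 with 250 nM RAP1B-BODIPY-GDP and 50 uM GDP; compound added, 5 min at room temperature, then read (ex 480/em 540 nm) every 5 min for 30 min. Normalized to 6.5 mM cAMP agonist control.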
(In general: qHTS replaces the single test concentration by a dilution series.)
For `CC(C)NC(=O)N1CC[C@@]2(CCCN(C(=O)c3csnn3)C2)C1`, the activation was inactive: -13.1%.

Take `C=C[C@](C)(O)CCC=C(C)C`: the activation was inactive: -5.76%.

For `COc1cc(-c2ccc(Cl)cn2)cc2c1OCCN(S(=O)(=O)C[C@]13CC[C@H](CC1=O)C3(C)C)C2`, the activation was inactive: -4.04%.

With `Cc1cc(NS(=O)(=O)c2ccc(N)cc2)no1`, the activation is inactive: -9.29% and inactive: -9.07%.

`COC(=O)C[C@H]1c2cc(C(F)(F)F)ccc2S(=O)(=O)N1Cc1ccccc1`: the activation is inactive: -16.2%.

With `C=C[C@@H](C1=CC(=O)C(OC)=C(OC)C1=O)c1ccccc1`, the activation is inactive: -14.9%.

On to `Cc1c(CN2CCOc3c(O)cc(-c4nc5ccccc5s4)cc3C2)cnn1C`, for which the activation is inactive: -13.4%.

Turning to `Cc1ccnc2c(Cl)ccc(Cl)c12`, the activation is inactive: -24.2%.

For the molecule `C=C1CCC(O)C/C1=C/C=C1\CCC[C@@]2(C)C(C(C)/C=C/C(C)C(C)C)CC[C@@H]12` (stereo partly specified), the activation is inactive: -33.9%.

For `Clc1ccccc1-c1cncnc1NCc1cccs1`, the activation was inactive: -5.74%.

As for `COc1ccc(C(=O)N2CCCC(c3nc(SCc4ccccn4)ncc3C)C2)cc1F` (stereo unspecified), the activation was inactive: -21.9%.

As to `O=C1CN(/N=C/c2ccc(-c3ccc([N+](=O)[O-])cc3)o2)C(=O)N1`, the activation was inactive: -4.02%.

As for `COc1ccc(CNc2ncncc2-c2cccnc2)c(OC)c1`, the activation is inactive: 7.59%.

For the molecule `Cc1cnc(CNc2nc(-c3ccccc3C(F)(F)F)nc3ccccc23)cn1`, the activation is inactive: -8.22%.

As to `CCC(=O)Oc1ccc2c(c1)CC[C@@H]1[C@@H]2CC[C@]2(C)[C@@H](OC(=O)CC)CC[C@@H]12`, the activation was inactive: -23.4%.

For the molecule `CC(=O)Nc1ccccc1-c1nc(CNC(=O)c2ccc(-n3cccn3)cc2)c(C)o1`, the activation is inactive: -6.88%.

For `C#Cc1cccc(C(=O)NCc2nc(-c3ccccc3NC(=O)C3CCCO3)oc2C)c1` (stereo unspecified), the activation is inactive: -13.1%.

Turning to `CC(C)c1c(O)ccc2c1CCC1[C@@](C)(CO)CCC[C@@]21C` (stereo partly specified), the activation is inactive: 15%.

In the case of `Cn1c(=O)c(-c2cccc(C#N)c2)nc2cnc(Oc3ccccc3)nc21`, the activation was inactive: 6.56%.

As to `Cc1cc(C=O)cc(C)c1[N+](=O)[O-]`, the activation is inactive: -9.96%.

Turning to `Cc1noc(C)c1C(=O)N1CCC2(CCN(Cc3ccc(C#N)cc3)CC2)CC1`, the activation is inactive: 4.93%.

For `c1cncc(CNc2nc(-c3ccc4c(c3)OCO4)nc3ccccc23)c1`, the activation is inactive: 2.9%.

In the case of `Cc1cnc(C(=O)N2CCOc3ccc(CN4CCCC(C(=O)c5cccnc5)C4)cc3C2)[nH]1` (stereo unspecified), the activation was inactive: 5.58%.

`CC1(O)CCC(C(C)(C)O)CC1` (stereo unspecified): the activation was inactive: -9.93%.

For the molecule `COC(=O)C(C)(N)Cc1ccc(O)cc1` (stereo unspecified), the activation is inactive: -18.8%.

With `C[C@@H](Cc1ccccc1)Nc1ncnc2c1ncn2[C@@H]1O[C@H](CO)[C@@H](O)[C@H]1O`, the activation was inactive: -7.61%.

Turning to `Cc1ccccc1-c1cncnc1NCc1ccccc1`, the activation is inactive: -2.84%.

In the case of `CCC1COCCS(=O)(=O)N1Cc1cccc(C(F)(F)F)c1` (stereo unspecified), the activation was inactive: -26.6%.

Turning to `CC(C)CN1CCC2(CC1)CCN(C(=O)c1csnn1)CC2`, the activation was inactive: -22.3%.

For `COc1cc(O)c2c(c1)C(=O)c1cc(C)cc(O)c1C2=O`, the activation was inactive: -11.6%.

As to `Cc1nc2cc(NC(=O)[C@@H]3C[C@@H](Sc4ccccn4)CN3Cc3ccc(F)cc3F)ccc2s1`, the activation was inactive: -16.1%.

`CCOC(=O)n1ccn(C)c1=S`: the activation is inactive: -19.9% and inactive: -4.44%.

On to `O=C1OC(=O)C2C3CCC(O3)C12` (stereo unspecified), for which the activation was inactive: -11.8% and inactive: 5.48% and inactive: -16.4%.

`O=P(O)(O)OP(=O)(O)O`: the activation was inactive: -9.69%.

For `COc1cc(C(C)=O)ccc1OCCCN1CCC(c2noc3cc(F)ccc23)CC1`, the activation was inactive: 5.26%.

`CCOC(=O)[C@H](CCc1ccccc1)N[C@H]1CCCN2CCC[C@@H](C(=O)O)N2C1=O`: the activation was inactive: -8.9%.

`CCCC1O[C@@H]2C[C@H]3[C@@H]4CCC5=CC(=O)C=C[C@]5(C)[C@H]4[C@@H](O)C[C@]3(C)[C@]2(C(=O)CO)O1` (stereo partly specified): the activation is inactive: -9.98% and inactive: -1.12%.

As for `c1ccc(-c2ccc(N3CC[C@@]4(CCCNC4)C3)cc2)cc1`, the activation was inactive: -10.1%.

`NCCC1CCCC(CCN)N1` (stereo unspecified): the activation is inactive: -14%.

As for `CCS(=O)(=O)Nc1cc(C(=O)N2CCC[C@H]2CO)c2c(c1)nc(-c1ccccc1)n2C`, the activation is inactive: 3.54%.

For the molecule `Cc1cc(COC(=O)C2N3C(=O)[C@@H](NC(=O)COc4ccccc4)[C@H]3SC2(C)C)on1` (stereo partly specified), the activation was inactive: -3.19%.

Regarding `COc1ccc(C(=O)N2CCC3(CCCN(Cc4cc(C(F)(F)F)cc(C(F)(F)F)c4)C3)CC2)cc1`, the activation was inactive: -15.5%.

Take `COc1ccccc1-c1ccc2ncnc(NCCN3CCOCC3)c2c1`: the activation is inactive: -14.7%.

Regarding `COc1ccc(OC)c(-c2cc(Cl)c3c(c2)CC(CNC(=O)[C@@H]2CCCN2C(C)=O)O3)c1` (stereo partly specified), the activation is inactive: -25.1%.

As to `Cc1ccccc1C1(CC(=O)N2CCOCC2)CC(=O)N(Cc2cccnc2)C1=O` (stereo unspecified), the activation is inactive: -20.3%.

As for `O=C(O)C[C@H]1c2cc(C(F)(F)F)ccc2S(=O)(=O)N1C1CCCCC1`, the activation was inactive: -9.54%.

In the case of `CN(Cc1ccco1)c1nc(-c2ccccc2C(F)(F)F)nc2ccccc12`, the activation was inactive: -10.3%.

For `COc1cc(-c2noc(C)c2-c2ccc(N(C)C)nc2)cc(OC)c1OC`, the activation was inactive: -16.9%.

`CN1[C@@H]2CC[C@H]1CC(OC(=O)c1c[nH]c3ccccc13)C2` (stereo partly specified): the activation was inactive: 1.87%.

Take `CCCCCCCCCCCCCCCCCCOCC(COP(=O)([O-])OCC[N+](C)(C)C)OC` (stereo unspecified): the activation is inactive: -13.9%.

As for `COc1ccccc1CNc1cc(-c2cccc(C#N)c2)ncn1`, the activation is inactive: -9.7%.

Regarding `Cc1cc(C)nc(S[C@H]2C[C@@H](C(=O)N3CCN(c4ccccc4F)CC3)N(Cc3ccccc3C(F)(F)F)C2)n1`, the activation is inactive: 12.4%.

In the case of `OC1C2COC(O2)[C@H](O)C1O` (stereo partly specified), the activation is inactive: -28.7%.

Regarding `CCCCN1CC[C@H]2C=CC[C@@H](C(=O)N3CCOCC3)[C@H]2C1=O`, the activation is inactive: -13.5%.

With `COc1cccc(Cn2c(=O)c(-c3ccc(Cl)cc3)nc3cnc(N(C)C)nc32)c1`, the activation is inactive: 5.47%.

`Cc1onc(-c2ccccc2)c1C(=O)N[C@@H]1C(=O)N2[C@@H](C(=O)O)C(C)(C)S[C@@H]12`: the activation is inactive: 0.698%.

In the case of `C=C[C@@H]1c2ccccc2N(S(=O)(=O)c2ccc(C)cc2)[C@H](c2ccccc2C(F)(F)F)C1(C#N)C#N`, the activation was inactive: -0.723%.

With `COc1ccc(NC(=O)N2CCCC3(CCN(C(=O)c4ccco4)CC3)C2)cc1`, the activation was inactive: -6.77%.

For the molecule `COc1cc(C(O)CO)ccc1OS(=O)(=O)O` (stereo unspecified), the activation was inactive: -18.7%.

On to `Cc1noc(C)c1-c1nccc(NCc2ccccc2)n1`, for which the activation is inactive: -28.5%.

As for `Cc1ccc2oc(-c3ccccc3)c(O)c(=O)c2c1`, the activation is inactive: -4.86%.

Take `O=C(c1ccco1)N(Cc1cc2cc3c(cc2nc1N1CCOCC1)CCC3)CC1CCCO1` (stereo unspecified): the activation was inactive: -1.79%.

Turning to `CN1CCCCCC1C(=O)NCC1Cc2cc(-c3cnccn3)ccc2O1` (stereo unspecified), the activation was inactive: 3.37%.

For `Cc1ccc(CN2C[C@H](Sc3ccccn3)C[C@H]2C(=O)Nc2ccc3sc(C)nc3c2)s1`, the activation is inactive: 0.525%.

As for `CC(C)CN1CCC2(CC1)CCN(C(=O)c1ccco1)CC2`, the activation is inactive: -7.83%.

For the molecule `CN(CCO)C(=O)c1cn(C2CCN(Cc3cccc(C(F)(F)F)c3)CC2)nn1`, the activation was inactive: -9.76%.

`COc1ccc(NC(=O)N2CCCC3(CCN(C(=O)c4cc(C(F)(F)F)cc(C(F)(F)F)c4)CC3)C2)cc1`: the activation was inactive: -22.4%.

With `COc1cc(-c2nc(C)cnc2C)cc2c1OCCN(C(=O)Cc1cc(OC)c(OC)c(OC)c1)C2`, the activation was inactive: -14.3%.

Consider `CC[C@H]1C(=O)[C@@H](Cc2ccccc2)[C@@H]2CCN3C(=O)CCC[C@H]1[C@H]23`, for which the activation was inactive: -3.28%.

For the molecule `O=C1O/C(=C/Br)CCC1c1cccc2ccccc12` (stereo unspecified), the activation was inactive: -38%.

Consider `O=CN1CCCN(C(=O)c2cc(NC(=O)c3ccccc3)cc3ncn(C4CCCC4)c23)CC1`, for which the activation is inactive: -4.8%.

For the molecule `COc1ccc(CCNc2ncnc3sc(C(=O)N4CCCC4)c(C)c23)cc1OC`, the activation is inactive: -4.7%.

With `CN1CCN(c2ncc3nc(-c4cc(F)cc(F)c4)c(=O)n(CCc4ccccc4)c3n2)CC1`, the activation is inactive: 1.89%.

In the case of `COC(=O)N1CCC[C@@]2(CCN(Cc3nccs3)C2)C1`, the activation was inactive: -11.1%.

Turning to `CC(C)NC(=O)N1CC2(CCN(C(=O)c3ccncc3)CC2)C1`, the activation is inactive: -19.6%.

For the molecule `CCNc1ncc2nc(-c3ccc(Cl)cc3)c(=O)n(Cc3ccc(F)cc3)c2n1`, the activation is inactive: -12%.

As for `CC1O[C@@H](O[C@H]2C(Oc3cc(O)c4c(c3)OC(c3ccc(O)cc3)CC4=O)OC(CO)C(O)C2O)C(O)C(O)C1O` (stereo partly specified), the activation is inactive: -14.4%.

As for `CCN1CCCC1CNC(=O)c1cnn(-c2nccc(-c3cc(OC)ccc3OC)n2)c1C` (stereo unspecified), the activation is inactive: 0.775%.

For `CN(C)C(=O)c1ccc(-c2ccc3ncnc(NCc4cccnc4)c3c2)cc1`, the activation is inactive: -6.72%.

In the case of `N#Cc1cccc(NC(=O)N2CCCC3(CCN(C(=O)c4ccco4)CC3)C2)c1`, the activation was inactive: -11.6%.

In the case of `COCCNc1ncnc2ccc(-c3cccc(OC)c3)cc12`, the activation was inactive: -2.86%.

For `CC(O)COc1ccccc1` (stereo unspecified), the activation is inactive: -8.25%.

As for `Cn1c(=O)cnc2cnc(Nc3ccccc3)nc21`, the activation is inactive: -26.5%.

As for `COc1cccc(Nc2ncc3nc(C)c(=O)n(CCc4ccccc4)c3n2)c1`, the activation was inactive: 3.94%.

With `COc1ccccc1CNc1cc(-c2ccccc2C)ncn1`, the activation was inactive: 3.53%.

For the molecule `O=C(c1ccncc1)N1CCC2(CC1)CCN(C(c1ccccc1)c1ccccc1)CC2`, the activation was inactive: -11.7%.
